What all share (assay): co-IP; yeast lysate (50 mM Tris pH 7.5, 0.2% NP40, 150 mM NaCl, 1 mM EDTA); Trs85-mNeonGreen captured on mNeonGreen-Trap resin, Trs23-6xHis-3xFLAG detected by anti-FLAG blot
Experiment [1] addresses T1, Trs85-mNeonGreen R620E (Saccharomyces cerevisiae) (UniProt P46944).
T1 sequence: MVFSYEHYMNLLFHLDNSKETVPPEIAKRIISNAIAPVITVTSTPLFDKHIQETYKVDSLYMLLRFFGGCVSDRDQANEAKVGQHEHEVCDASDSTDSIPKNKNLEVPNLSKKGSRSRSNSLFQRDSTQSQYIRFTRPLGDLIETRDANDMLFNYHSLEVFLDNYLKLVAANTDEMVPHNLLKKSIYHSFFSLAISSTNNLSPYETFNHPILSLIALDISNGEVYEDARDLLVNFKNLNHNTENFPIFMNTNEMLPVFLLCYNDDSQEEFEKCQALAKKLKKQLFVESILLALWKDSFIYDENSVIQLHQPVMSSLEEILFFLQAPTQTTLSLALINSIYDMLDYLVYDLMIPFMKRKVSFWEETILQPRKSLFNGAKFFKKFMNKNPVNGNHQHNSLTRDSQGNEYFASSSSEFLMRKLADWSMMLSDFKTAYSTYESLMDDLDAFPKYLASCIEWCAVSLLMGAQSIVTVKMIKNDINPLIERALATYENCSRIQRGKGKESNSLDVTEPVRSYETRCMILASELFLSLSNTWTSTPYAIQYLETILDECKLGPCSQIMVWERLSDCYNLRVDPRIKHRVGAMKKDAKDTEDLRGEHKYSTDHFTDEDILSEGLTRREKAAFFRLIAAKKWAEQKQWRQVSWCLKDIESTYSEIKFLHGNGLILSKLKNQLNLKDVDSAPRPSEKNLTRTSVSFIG

The target in experiment [2] is T2, Trs85-mNeonGreen R620A (Saccharomyces cerevisiae) (UniProt P46944).
T2 sequence: T1 sequence with E620A

The target of experiment [3] is T3, Trs85-mNeonGreen, wild-type (Saccharomyces cerevisiae) (UniProt P46944).
T3 sequence: T1 sequence with E620R

Our source for the binding values is PMC8204860.

Substitutions are numbered along the chain they refer to. These are yes or no findings as the source states them, for the method shown. Binding seen in cells or lysates may run through a third protein. Some binding calls cover weakened binding; strength is not graded here. Tags and fused reporters may be left off the sequences shown.

B1: TRAPP core (endogenous in yeast, with Trs23-6xHis-3xFLAG) (complex, UniProt Q03784 1-219; P38334 1-175; Q03337 1-283; P36149 1-193; Q03630 1-159; Q99394 …)
chain 1: MAIETILVINKSGGLIYQRNFTNDEQKLNSNEYLILASTLHGVFAIASQLTPKALQLTQQTNIENTIPYIPYVGMSSNRSDTRNGGGNNNKHTNNEKLGSFKGDDFFKEPFTNWNKSGLRQLCTDQFTMFIYQTLTGLKFVAISSSVMPQRQPTIATTDKPDRPKSTSNLAIQIADNFLRKVYCLYSDYVMKDPSYSMEMPIRSNLFDEKVKKMVENLQ
chain 2: MPQYFAIIGKKDNPVYEIEFTNAENPQGFPQDLKELNPFILHASLDIVEDLQWQINPTSQLNGNGGNGSNGGGGFLRSRAVNNTDNCYLGKVDHFYGLAITAYISYSGMKFVMIHGNSANSSVVIDDNNMRSFYQEVHELYVKTLMNPFYKITDPIRSPAFDSRVRTLARKHLSK
chain 3: MSQRIIQPSASDQQFPGKSDGYEYTVGPKQAITSEASTTYIPSRIYSESLLFKRQEASLSAMAFLFQEMISQLHRTCKTAGDFETKLSDYGHNIGIRLLELLNFRASVSPSSLPRASAFLSQNESSSKLSNASNSPGMLANSSTATSASANERLQEKQTESLSNYITKMRRRDLKILDILQFIHGTLWSYLFNHVSDDLVKSSERDNEYMIVDNFPTLTQFIPGENVSCEYFVCGIIKGFLFNAGFPCGVTAHRMPQGGHSQRTVYLIQFDRQVLDREGLRFG
chain 4: MVSTTQSRSLKAMGEEIWKNKTEKINTELFTLTYGSIVAQLCQDYERDFNKVNDHLYSMGYNIGCRLIEDFLARTALPRCENLVKTSEVLSKCAFKIFLNITPNITNWSHNKDTFSLILDENPLADFVELPMDAMKSLWYSNILCGVLKGSLEMVQLDCDVWFVSDILRGDSQTEIKVKLNRILKDEIPIGED
chain 5: MGIYSFWIFDRHCNCIFDREWTLASNSASGTINSKQNEEDAKLLYGMIFSLRSITQKLSKGSVKNDIRSISTGKYRVHTYCTASGLWFVLLSDFKQQSYTQVLQYIYSHIYVKYVSNNLLSPYDFAENENEMRGQGTRKITNRNFISVLESFLAPMVNQ
chain 6: MSSTHSNNVGHPQSSPQGPLTEQQRAQQQYQIFENSLPKVSQSVYQMLLNEMVPLAMGIERQISGDVISSDSNVTSENGNINNMIKRLKIEEHHTVDIIRSHNLIHELYKADEEEKEKVLARLRNIGFQIGLKLSELLIFSNNPNLKFKEMDLLLIMKFICRDVWKQIFGKQIDNLKTNHRGTFYLLDYDYRPIQSFSLEEDAKNEELKMIEPFLEIPVGIIRGVLSSLGYSSEEVICLASFIDRPTDRPKTAFPKGVSFHVQVTMPQ
Take B1: the binding result in experiment [1] is recorded as “no binding”; in experiment [2], “binds”; in experiment [3] it was “binds”.
